The assay deals with Rab2A(Q65L)-BirA*-HA-MAO (human) (UniProt P61019). The experiment in a line: relocation to mitochondria (confocal microscopy); tagged protein co-expressed in cells (MEFs, HeLa) with the mitochondrial GTPase-BirA* chimera; relocation of the tagged protein to mitochondria.

Chains of the proteins cited; added tags and fusions are not shown. Lines headed by an entry give the natural chain unless they say otherwise; changes in a name come on top.
UniProt P61019: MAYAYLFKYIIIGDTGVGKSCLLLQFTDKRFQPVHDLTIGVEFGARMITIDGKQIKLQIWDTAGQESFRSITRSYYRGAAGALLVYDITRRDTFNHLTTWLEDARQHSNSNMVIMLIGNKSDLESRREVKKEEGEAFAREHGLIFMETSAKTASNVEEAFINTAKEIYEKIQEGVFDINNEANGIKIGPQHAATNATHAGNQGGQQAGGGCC
UniProt Q5TH69: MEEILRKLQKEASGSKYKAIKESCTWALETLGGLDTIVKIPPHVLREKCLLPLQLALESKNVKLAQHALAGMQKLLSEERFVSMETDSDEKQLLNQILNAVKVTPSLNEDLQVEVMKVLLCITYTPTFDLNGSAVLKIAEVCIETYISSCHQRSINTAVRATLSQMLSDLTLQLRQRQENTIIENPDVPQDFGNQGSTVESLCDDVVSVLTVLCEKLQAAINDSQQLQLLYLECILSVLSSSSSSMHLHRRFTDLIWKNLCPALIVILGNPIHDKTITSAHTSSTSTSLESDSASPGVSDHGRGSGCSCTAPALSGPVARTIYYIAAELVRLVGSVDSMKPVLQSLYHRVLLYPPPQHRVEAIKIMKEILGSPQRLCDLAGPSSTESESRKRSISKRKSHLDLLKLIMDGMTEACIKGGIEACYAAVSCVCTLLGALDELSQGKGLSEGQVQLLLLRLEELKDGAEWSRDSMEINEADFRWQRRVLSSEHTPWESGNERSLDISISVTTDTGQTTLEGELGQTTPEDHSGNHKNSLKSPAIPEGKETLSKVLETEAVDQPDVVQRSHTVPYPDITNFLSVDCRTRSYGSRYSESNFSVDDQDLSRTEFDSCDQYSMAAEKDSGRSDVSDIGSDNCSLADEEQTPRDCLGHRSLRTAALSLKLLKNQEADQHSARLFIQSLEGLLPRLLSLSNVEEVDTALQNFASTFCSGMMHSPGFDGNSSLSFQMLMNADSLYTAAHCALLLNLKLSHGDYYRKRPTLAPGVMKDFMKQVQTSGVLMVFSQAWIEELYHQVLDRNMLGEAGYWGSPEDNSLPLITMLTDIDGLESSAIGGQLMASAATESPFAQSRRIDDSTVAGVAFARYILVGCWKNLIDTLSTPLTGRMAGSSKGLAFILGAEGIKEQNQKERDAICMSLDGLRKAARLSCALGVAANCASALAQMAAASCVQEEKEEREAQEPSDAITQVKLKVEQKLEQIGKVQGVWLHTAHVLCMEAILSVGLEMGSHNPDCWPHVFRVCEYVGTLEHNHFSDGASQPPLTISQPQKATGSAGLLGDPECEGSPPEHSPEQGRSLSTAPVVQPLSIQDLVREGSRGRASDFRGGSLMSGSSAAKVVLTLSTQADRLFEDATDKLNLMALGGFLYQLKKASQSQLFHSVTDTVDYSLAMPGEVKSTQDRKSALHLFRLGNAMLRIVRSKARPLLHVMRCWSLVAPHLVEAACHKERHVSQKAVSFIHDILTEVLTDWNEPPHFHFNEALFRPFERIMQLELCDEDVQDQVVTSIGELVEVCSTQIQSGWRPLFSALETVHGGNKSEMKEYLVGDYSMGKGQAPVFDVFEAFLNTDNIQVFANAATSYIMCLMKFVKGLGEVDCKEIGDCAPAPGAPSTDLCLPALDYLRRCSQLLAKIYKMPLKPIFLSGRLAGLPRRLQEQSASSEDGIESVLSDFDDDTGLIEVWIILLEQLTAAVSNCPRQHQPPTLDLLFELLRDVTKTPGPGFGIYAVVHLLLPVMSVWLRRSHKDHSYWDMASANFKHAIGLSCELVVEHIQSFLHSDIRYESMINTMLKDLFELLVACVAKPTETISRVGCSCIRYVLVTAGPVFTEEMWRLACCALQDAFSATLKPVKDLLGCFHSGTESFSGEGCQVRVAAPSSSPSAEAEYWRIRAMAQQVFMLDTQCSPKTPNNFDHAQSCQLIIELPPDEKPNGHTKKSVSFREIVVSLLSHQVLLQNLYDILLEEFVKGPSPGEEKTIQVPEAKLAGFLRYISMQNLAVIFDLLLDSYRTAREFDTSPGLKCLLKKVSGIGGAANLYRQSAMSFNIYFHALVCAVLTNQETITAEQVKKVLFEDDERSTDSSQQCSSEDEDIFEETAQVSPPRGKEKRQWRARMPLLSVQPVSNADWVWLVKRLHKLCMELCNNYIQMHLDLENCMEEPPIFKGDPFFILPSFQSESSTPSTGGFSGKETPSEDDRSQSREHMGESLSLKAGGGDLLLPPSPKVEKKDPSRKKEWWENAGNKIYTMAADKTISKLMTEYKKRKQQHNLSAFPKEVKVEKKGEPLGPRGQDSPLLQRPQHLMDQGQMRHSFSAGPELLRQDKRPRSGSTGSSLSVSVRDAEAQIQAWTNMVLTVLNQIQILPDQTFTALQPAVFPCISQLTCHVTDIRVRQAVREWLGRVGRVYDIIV

Among the data in publication PMC6639074 are binding values, retold here.

These are yes or no findings as the source states them, for the method shown. Some results given as binding are weak or reduced against the parent protein; the word gives no strength.

For the substance “GFP-ARFGEF3 (from UniProt Q5TH69 1-2177)”, the binding result was “binds”.
